Out of some 340,000 compounds screened, about 6,900 (2%) were called active. Rule as the data show it: active = inhibition above about 30%; inactive = below that, where a call was filed. Only a part is listed here, and it is no random draw. Entries without a call were filed so in the source.
What follows are molecules tested against D(2) dopamine receptor (Homo sapiens) (UniProt P14416) (assay: HTS Assay for Allosteric Antagonists of the Human D2 Dopamine Receptor: Primary Screen for Antagonists). Details: HEK293 TREx D2 cells, calcium flux, dopamine EC80; at 10 µM; stronger effect = higher value.
Chain of UniProt P14416 (P14416 whole entry, looked up): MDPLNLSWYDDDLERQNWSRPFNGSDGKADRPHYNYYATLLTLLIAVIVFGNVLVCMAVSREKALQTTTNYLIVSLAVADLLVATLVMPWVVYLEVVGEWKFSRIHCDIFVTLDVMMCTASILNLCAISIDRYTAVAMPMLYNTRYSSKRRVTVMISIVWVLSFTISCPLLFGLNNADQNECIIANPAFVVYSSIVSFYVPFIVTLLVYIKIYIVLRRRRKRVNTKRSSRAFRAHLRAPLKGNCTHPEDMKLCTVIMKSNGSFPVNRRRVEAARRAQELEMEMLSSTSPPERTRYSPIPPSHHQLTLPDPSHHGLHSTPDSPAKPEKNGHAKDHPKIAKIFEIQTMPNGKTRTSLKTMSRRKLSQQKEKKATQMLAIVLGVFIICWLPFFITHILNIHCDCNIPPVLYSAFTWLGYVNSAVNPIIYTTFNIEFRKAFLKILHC
Summary of the method: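 Calcium mobilization kinetics were recorded at 1 s intervals in tetracycline-induced HEK293 T-REx D2 cells, first for 180 s after compound addition and then 180 s after EC80 dopamine.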
Also: 0% is about no effect.

SMILES | inhibition
COc1ccc(OC)c(C2CC(=O)Nc3c2c(=O)[nH]c2nc4ccccc4n32)c1 (configuration not stated) | 12.4%
CCOC(=O)C1CCN(CCC(=O)Nc2ccccc2OC)CC1 | 20.2%
N#Cc1ccc(NC(=O)COCc2cc(-c3ccco3)on2)cc1 | 22.4%
Cn1c(=O)c2c(nc(CN3CCN(c4ccccc4F)CC3)n2Cc2ccc(F)cc2)n(C)c1=O | -3.4%
O=c1c(S(=O)(=O)c2ccccc2)cn(Cc2ccccc2)c2cc(N3CCCC3)c(F)cc12 | -1.53%
CCOc1ccc(N(Cc2ccccc2)C(=O)c2nc(SC)ncc2Cl)cc1 | 15.3%
Cc1nn(C)c2c1c(C(F)(F)F)cc(=O)n2Cc1ccc(Br)cc1F | 7.99%
N#Cc1c(N2CCN(C(=O)c3ccco3)CC2)nc(-c2ccccc2)c2c1CCCC2 | active: 31.7%
O=C(Cn1c(=O)c(CNc2ccccc2)cc2cc3c(cc21)OCCO3)Nc1ccccc1Cl | -7.64%
CCc1ccc2oc(-c3ccc(C)c(NC(=O)Cc4ccccc4)c3)nc2c1 | -4.66%
CC(C)(C)OC(=O)N1CCC(c2c(C(=O)NCCN3CCOCC3)cnn2-c2cccc(Cl)c2)CC1 | 11.5%
CCCOc1ccc(C(=O)N2CCC(c3nc4ccccc4s3)CC2)cc1 | -7.84%
O=C(C1CC1)N1CCc2cc(Br)cc(S(=O)(=O)Nc3ccc(F)c(F)c3)c21 | -10.1%
CCc1ccc(/C=C(/C#N)c2nc(-c3ccc(C)cc3)cs2)cc1 | -9.63%
O=S(=O)(NCC(c1ccco1)N1CCN(c2ccccc2)CC1)c1cc(F)ccc1F (configuration not stated) | -1.96%
COCCNCCCCOc1ccccc1-c1ccccc1 | active: 92%
Cc1cc(C)cc(N2CCn3c2nc2c3c(=O)n(Cc3c(F)cccc3Cl)c(=O)n2C)c1 | 2.99%
O=C(NCCc1ccccc1)C1CCN(c2nc3ccccc3nc2C(F)(F)F)CC1 | 4.84%
FC(F)(F)c1cc(Nc2nc3ccccc3c3nncn23)ccc1Cl | 13.7%
COCCn1c(SCC(=O)c2ccc(C)cc2)nc2cc(C(=O)NC3CCCC3)ccc2c1=O | -0.202%
CCCCCSc1nnc2c(n1)[nH]c1c(C)cccc12 | 7.84%
CCCNC(=O)c1cnn(-c2ccc(C)c(C)c2)c1C1CCN(C(=O)OC(C)(C)C)CC1 | -4.84%
Cc1c(C(=O)Nc2ccc(F)c(Cl)c2)sc2nc3n(c(=O)c12)CCC3 | -11.2%
COc1ccc(Cl)cc1NC(=O)CSc1nc2c(oc3ccccc32)c(=O)n1Cc1ccco1 | -3.54%
Fc1ccccc1N1CCN(c2ncnc3onc(-c4ccc(Cl)cc4)c23)CC1 | -5.27%

SMILES | inhibition
S=C(Nc1ccc(Cl)cc1Cl)NC1CCN(Cc2ccccc2)CC1 | active: 74.7%
CCOC(=O)c1ccccc1NC(=O)CN1C(=O)CC(c2ccccc2)Sc2ccccc21 (configuration not stated) | -6.73%
CNS(=O)(=O)c1ccc(N=Cc2c(C)[nH]n(-c3ccc(C)cc3C)c2=O)cc1 | active: 42.3%
O=C(c1ccco1)N1CCN(Cc2cccc3ccccc23)CC1 | active: 76%
CCCCOc1ccc(C(=O)NCc2cn3cccc(C)c3n2)cc1 | 12.1%
Cc1cccc(-c2nc3scc(CCNS(=O)(=O)c4ccc(F)c(C(F)(F)F)c4)n3n2)c1 | 16.3%
Cc1ccc(C(=O)Nc2ccc(C(=O)O)cc2)cc1S(=O)(=O)N1CCC(C)CC1 | -18.8%
O=C(Nc1ccc(N2CCN(c3ccc(F)cc3)CC2)c(C(=O)O)c1)c1cccs1 | -18%
CCOc1cc2c(cc1OCC)C(CC(=O)O)N(C(=O)Nc1ccc(Br)c(C)c1)CC2 (configuration not stated) | 3.32%
CCCCOc1ccc(C(=O)NCCc2sc3nc(-c4ccc(OC)cc4)nn3c2C)cc1 | 17.3%
O=C(NCc1ccc(Cl)cc1)C1CCC(CNS(=O)(=O)c2ccccc2)CC1 (configuration not stated) | -8.11%
CCN(CC)c1nn2c(=O)c(C(=O)NCCc3ccccc3C)cnc2s1 | 3.66%
CCOc1ccc(N(C)C(=O)C2CCN(S(=O)(=O)c3c(C)noc3/C=C/c3ccc(C)cc3)CC2)cc1 | -18.4%
Cc1ccc(NC(=O)/C=C/c2ccco2)cc1F | -18.1%
CCOC(=O)c1c(NC(=O)C[n+]2ccccc2)sc2c1CCCC2 | active: 45.8%
Cc1cccc(CN2CCN(CC(=O)NCCc3ccc(Cl)cc3)C2=O)c1 | -1.21%
O=C(c1cccc(S(=O)(=O)N2CCOCC2)c1)N1CCN(S(=O)(=O)c2cccs2)CC1 | active: 41.6%
CCCOc1ccccc1C(=O)N(Cc1cccc(Br)c1)C1CCS(=O)(=O)C1 (configuration not stated) | active: 47.5%
Cc1cc(C)c(NC(=O)c2oc3c(c2C)-c2[nH]ncc2CC3)c(C)c1 | 12.5%
O=C(Cn1cc(S(=O)(=O)Cc2ccccc2Cl)c2ccccc21)NCCc1ccccc1 | 1.33%
COc1ccc(NC(=O)c2c(NC(=O)COc3ccccc3)sc3c2CCCCC3)cc1 | -8.21%
Cc1nc2c3ccccc3n(CCN3CCCCC3)c2s1 | active: 39.6%
O=C(NCc1ccc(F)cc1)C(=O)Nc1ccc2nc3n(c(=O)c2c1)CCCCC3 | -7.58%
CCn1nnc2cc(C(=O)Nc3cc(C)ccc3C)ccc21 | -0.525%
Cc1ccc(-c2cc3ncc4c(n3n2)-c2cc(Cl)ccc2OC4)cc1 | -1.37%

SMILES | inhibition
COc1ccc(NC(=O)CCNS(=O)(=O)c2ccc3c(c2)CCCC(=O)N3)cc1 | -15.1%
COc1ccc(NC(=O)CC2C(=O)N(c3cccc(OC)c3)C(=O)N2CCC2=CCCCC2)cc1 (configuration not stated) | 2.61%
CCc1cc2c(cc3c(=O)n(CC(=O)N4CCN(c5cccc(C)c5C)CC4)nc(CC)n32)s1 | 0.34%
CCc1ccccc1NC(=O)CCC(=O)N1CC(C)Oc2ccc(C)cc21 (configuration not stated) | 23.1%
COc1ccc(CCNCc2c(C(=O)O)c(C)n(Cc3cccc(Cl)c3)c2C)c(OC)c1OC | 13.3%
O=C(Cn1cc(C(=O)c2ccccc2)c(=O)c2cc3c(cc21)OCCO3)Nc1ccc(F)c(F)c1 | -0.715%
COc1ccc(CCNC(=O)c2cc3c(=O)n(C)c4ccccc4c3s2)cc1OC | -13.7%
O=C(c1ccco1)N1CCN(Cc2ccc(F)cc2Cl)CC1 | active: 58%
CCCn1c(=O)c2sccc2n2c(CCCC(=O)N3CCN(c4cccc(Cl)c4)CC3)nnc12 | -2.21%
CC(=O)c1cccc(NC(=O)CN2C(=O)CC(c3ccc(C)cc3C)=Nc3ccccc32)c1 | 8.15%
O=C(/C=C/c1ccc(Cl)cc1)N1CCC(c2nc3ccccc3o2)CC1 | -10.7%
CCCCN(CC)CCCNC(=O)c1cn(CC)c2ccc(S(=O)(=O)N3CCc4ccccc4C3)cc2c1=O | 8.87%
Cc1ccc(NS(=O)(=O)c2ccc3nc(-c4ccccc4)[nH]c3c2)c(Br)c1 | -6.59%
Cc1ccc(Nc2nc3ccc(C(=O)c4ccccc4)cc3n3c(C)nnc23)c(C)c1 | 1.95%
COc1ccc(-c2noc(CC(=O)Nc3cc(OC)ccc3OC)n2)cc1 | -12.7%
Cc1sc2ncn(CC(=O)N(C)c3ccc(C(C)C)cc3)c(=O)c2c1S(=O)(=O)N1CCC(C)CC1 | -4.63%
CC1CCC(NC(=O)C2(C)Cc3ccccc3C(=O)N2Cc2ccc(Cl)cc2)CC1 (configuration not stated) | 4.69%
CCOC(=O)c1ccccc1NC(=O)c1cc2ccc3cccnc3c2[nH]1 | 10.9%
CCCOC(=O)CSc1nnc(-c2ccccc2)o1 | 10.5%
Cc1oc2ncnc(N3CCOCC3)c2c1C(=O)NCCc1ccccc1 | -4.95%
CCn1c(C(=O)Nc2ccc(C)cc2C)cc2sc(Cl)cc21 | -1.83%
CC(C)NC(=O)c1ccc2c(c1)nc1n2CCCCC1 | 12.2%
CCOC(=O)COc1ccc(C)cc1C(=O)c1ccn2nc(-c3ccc(Cl)cc3)cc2n1 | 4.43%
Cc1ccccc1NC(=S)NC1CCN(Cc2ccccc2)CC1 | active: 78.4%
O=C(c1cc(-c2ccc(F)cc2)on1)N1CCN(c2ccc(F)cc2)CC1 | 6.89%

SMILES | inhibition
CC(=O)Nc1cc[n+](C(C)C(=O)c2ccc(Br)cc2)cc1 (configuration not stated) | active: 53.9%
CCCCNS(=O)(=O)c1ccc2nc(-c3cccnc3)cc(C(=O)NC(C)C)c2c1 | -4.93%
O=C(CN1C(=O)c2cccc3cccc1c23)Nc1ccccc1Br | -15.7%
Cn1nc(C(=O)N2CCN(c3ccccc3F)CC2)c2c1-c1ccccc1S(=O)(=O)C2 | -15.6%
CCCC1N=C2c3ccccc3N=C(SCC(=O)NCCc3ccc(Cl)cc3)N2C1=O (configuration not stated) | 8.71%
Cc1cccc(N2CCN(Cc3cc(=O)oc4cc(C)ccc34)CC2C)c1 (configuration not stated) | -14.5%
Cc1ccccc1N1CC(c2nnc(NC(=O)c3ccco3)s2)CC1=O (configuration not stated) | 18%
CC(C)(C)C1CCc2onc(C(=O)Nc3sc4c(c3C#N)CCCC4)c2C1 (configuration not stated) | 7.46%
CCOc1ccc(OCC(=O)NCCS(=O)(=O)N2CCN(c3cccc(Cl)c3)CC2)cc1 | -12.7%
Cc1ccc(Cn2c(=O)c3cccnc3n(CC(=O)Nc3cc(Cl)ccc3C)c2=O)cc1 | 4.24%
CSc1ccc(CCNC(=O)c2cc3cc4cc(C)ccc4nc3s2)cc1 | 14.4%
CCN1C=C(Cc2cccs2)C2=C(C1)C(c1cccs1)C(C#N)=C(N)O2 (configuration not stated) | active: 80.6%
CCc1nn(CC(=O)NCCCc2ccccc2)c(=O)c2cc3ccccc3n12 | 0.456%
Cc1c(Cl)cccc1NC(=O)Cn1c(=O)n(Cc2nc(-c3ccccc3)no2)c(=O)c2cc3c(cc21)OCO3 | 5.07%
Cc1c(Cl)cccc1NC(=O)C1CCN(c2nc3ccccc3[nH]2)CC1 | 13.9%
Cc1ccc(Nc2cc(C)c(C#N)c3nc4ccccc4n23)c(C)c1 | 4.46%
COC(=O)c1sccc1S(=O)(=O)N(CC(=O)Nc1ccccc1)c1ccccc1 | 25%
CCc1ccc(CNC(=O)c2cnc3c(C)cccn3c2=O)cc1 | 7.49%
CCCC(=O)Nc1cccc(-c2cn3c(C)csc3n2)c1 | -10.2%
COc1ccc(-c2oc3cccnc3c2/C=C/c2ccc(OC)c(OC)c2)cc1 | active: 30%
COc1cc(C2Nc3ccccc3-c3nnc(SCc4ccc(C)cc4)nc3O2)cc(OC)c1O (configuration not stated) | 21.6%
CCCCN(C)S(=O)(=O)c1ccc(C(=O)Nc2ccc(-c3nc4ccc(C)cc4s3)cc2)cc1 | 9.24%

Reference: PubChem BioAssay AID485344 (National Center for Advancing Translational Sciences (NCATS), 2010)
